From PubChem BioAssay AID1347417 (National Center for Advancing Translational Sciences (NCATS), 2020)
In all, about 120,000 compounds went through this assay and about 5,300 (4.4%) were called active. Inconclusive means that the source gave no clear call. Such entries were picked first, then a sample of the others. The call rests on the fitted dose curve; in most records, active means well fitted inhibition curve with a large enough effect; inconclusive means small, poorly fitted or top-dose-only effect; inactive means no such curve, though single readings can be large or run the other way. Where the call is inconclusive, the potency comes from a doubtful curve fit.

Assay: qHTS Primary assay for Inhibitors of Plasmodium falciparum Dd2 growth in vitro; further: nearly all actives have a fitted effect of over 65% in size
Conditions: P. falciparum Dd2 growth, SYBR Green, 72 h; series mostly up to 28.9 µM
In short: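 Readout: SYBR Green fluorescence, 485 nm excitation, 535 nm emission, after ~16 h lysis at 37C. Before that, Dd2-infected red cells (2.5% hematocrit) grew 72 h with compound, 29 uM top final concentration.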
Potency means the concentration at half of the fitted maximal effect; tags describe the fitted curve by direction and shape.

SMILES | Potency
O=C(CSc1nc2nccnc2c(=O)n1CCc1c[nH]c2ccccc12)Nc1ccccc1 | inconclusive: 17.8 µM [inhibitor, single point]
COC(=O)c1c(NC(=O)/C(C#N)=C/c2ccc(OC)cc2)sc2c1CCC2 | inconclusive: 1.12 µM [inhibitor, partial curve]
O=C1NC(=NC2CCCCC2)C2(CCN([S+](=O)([O-])c3ccccc3)CC2)N1c1cccnc1 | inactive
C=CCN(C)C(=O)C[C@@H]1c2nc(NC(=O)c3cccs3)sc2C[C@@H]2[C@](C)(CO)[C@H](O)CC[C@]21C | active: 11.2 µM
Cn1ccc(NC(=O)c2ccc(-c3ncc4cnc(-c5ccccc5)cn34)cc2)n1 | inconclusive: 11.2 µM [inhibitor, partial curve, poor fit]
COc1cccc(NC(=O)c2oc3ccccc3c2NC(=O)c2ccc(F)c(F)c2)c1 | inconclusive: 17.8 µM [inhibitor, single point]
CC(C)n1cc2cc(C(=O)N3CCN(Cc4ccc5c(c4)OCO5)CC3)sc2c1 | inconclusive: 0.891 µM [inhibitor, full curve, poor fit]
Cc1nnc(-c2cc(-c3cccc(N(C)C)c3)ccn2)n1Cc1ccccc1 | inconclusive: 1.12 µM [inhibitor, single point]
CCCCS(=O)(=O)N1CCC(C2CCNC2)CC1 (centres undefined) | inactive
O=C(NCc1cccc(F)c1)c1nc2c(o1)CCN(CCCc1ccccc1)CC2 | inconclusive: 6.31 µM [inhibitor, partial curve]
Cc1oc2cc3oc(=O)c(CC(=O)NCc4ccccc4)c(C)c3cc2c1C | inconclusive: 3.16 µM [inhibitor, partial curve, poor fit]
COCc1nc(C2CCOCC2)nn1CC1COCCO1 (centres undefined) | inactive
Cc1ccc(C)c(NC(=O)N2CC(n3cc(COc4ccccc4)nn3)C2)c1 | inactive
C[C@@H](NC(=O)N1CCOC[C@H]1c1ncc(-c2ccc(F)cc2)[nH]1)c1ccccc1 | inactive
COc1c(Cl)cc(C(=O)N(Cc2ccccc2F)C2CCS(=O)(=O)C2)cc1Cl (centres undefined) | inconclusive: 11.2 µM [inhibitor, partial curve, poor fit]
CCC(Sc1nc(-c2ccc(F)cc2)nc2c1Cc1c(CO)cnc(C)c1O2)C(=O)Nc1ccc(F)cc1 (centres undefined) | inconclusive: 1.12 µM [inhibitor, single point]
CC(C)CN1CCc2nc(Nc3ccc(F)cc3F)ncc2C1 | inconclusive: 17.8 µM [inhibitor, single point]
O=C(Cc1cccs1)Nc1c(C(=O)Nc2ccc(F)cc2)oc2ccccc12 | inconclusive: 17.8 µM [inhibitor, single point]
CC(=O)N1CCc2c(sc3c2c(=O)n(Cc2ccccc2)c(=O)n3Cc2ccccc2F)C1 | inactive
COc1cc(/C=C(\C#N)c2nc3ccccc3[nH]2)ccc1OCc1ccccc1F | inconclusive: 0.501 µM [inhibitor, partial curve, poor fit]
Cc1ccc(CC(=O)NC(C)C(=O)N2CCN(c3ccccn3)CC2)cc1 (centres undefined) | inactive
CCCS(=O)(=O)N1CCC(N2C(=O)C3(CCCCC3)C2c2ccncc2)CC1 (centres undefined) | inconclusive: 6.31 µM [inhibitor, partial curve, poor fit]

SMILES | Potency
CC(C)CCN1C(=O)CC[C@]2(C(=O)NCc3ccncc3)CCCC[C@@H]12 | inactive
COCCN1CC(CO)C2(CCN(Cc3ccc(Cl)cc3F)CC2)C1 (centres undefined) | inconclusive: 11.2 µM [inhibitor, partial curve]
CCN1CCN(CC(=O)NCc2cc(N3CCOCC3)ncn2)CC1 | inactive
Cc1cc(C)cc(NC(=O)N2CCC(CN3CCCCCC3)CC2)c1 | inconclusive: 20 µM [inhibitor, single point]
O=[S+]1([O-])NC2(CCCN(Cc3cncs3)C2)CNc2ccccc21 (centres undefined) | inactive
COC[C@H]1CCCN1Cc1nc(C2(O)CCN(Cc3ccccc3C(F)(F)F)CC2)cs1 | inconclusive: 5.01 µM [inhibitor, partial curve]
COc1ccc2[nH]c3c(c2c1)CCNC31CCN(C(=O)c2cc(C)nn2C)CC1 | inconclusive: 3.98 µM [inhibitor, partial curve, poor fit]
O=C(CCC1CCN(C(=O)c2ccccc2F)CC1)Nc1ccccc1 | inactive
COc1ccc(C(CNC(=O)c2ccc(F)cc2)N2CCCC2)cc1 (centres undefined) | inactive
COc1ccccc1CN1CC[C@H]2COC(=O)N2c2cc(F)ccc2C1 | inconclusive: 11.2 µM [inhibitor, single point]
CC(C)NC(=O)CCCN1C(=O)COc2ccc(C(=O)COc3ccccc3Cl)cc21 | inconclusive: 11.2 µM [inhibitor, partial curve, poor fit]
O=C1NCc2ccccc2CC12CCN(Cc1ccccc1OC(F)(F)F)C2 (centres undefined) | inconclusive: 10 µM [inhibitor, single point]
CCCCNC(=O)CN1C(=O)c2cccnc2Sc2ccccc21 | inconclusive: 11.2 µM [inhibitor, single point]
O=C(Nc1ccccc1)N[C@H]1[C@H](O)[C@@H](N2CCCCC2)[C@@H]2OC[C@H]1O2 | inactive
O=C(CSc1nc(=O)[nH]c2c1CCCC2)NCc1ccccc1Cl | inactive
CCOC(=O)c1c(C)n(-c2ccccc2)c2ccc(OC(=O)COc3ccccc3)cc12 | inactive
COc1ccc(N2CCN(C(=O)C3CCCN(C(=O)c4cc5sccc5n4C)C3)CC2)cc1 (centres undefined) | inconclusive: 15.8 µM [inhibitor, partial curve, poor fit]
CN(Cc1cncs1)Cc1ccccc1C(F)(F)F | inconclusive: 31.6 µM [inhibitor, single point]
O=C(c1n[nH]c2c1CCCCCC2)N1CCC(Cc2nncn2CC2CC2)CC1 | inactive
CCCCN1CCOc2ccc(C(=O)NCc3ccccc3F)cc2C1 | inconclusive: 17.8 µM [inhibitor, single point]
CCCCNC(=O)c1ccc2c(c1)N(CC)C(=O)c1ccccc1S2 | inactive
Cc1ccc2c(c1)N(C(=O)N1CCC(C(=O)NCc3ccccc3C)CC1)CC(C)O2 (centres undefined) | inconclusive: 8.91 µM [inhibitor, single point]
